The supplement of paper PMC3334620
Over roughly 33,000 sequences, “E-score (-0.5 to 0.5)” has its median near -0.012; the highest 2% begin near 0.27. The list shows a part of the results.

Molecular target: T1, Vhr1 (UniProt P40522)
T1 sequence: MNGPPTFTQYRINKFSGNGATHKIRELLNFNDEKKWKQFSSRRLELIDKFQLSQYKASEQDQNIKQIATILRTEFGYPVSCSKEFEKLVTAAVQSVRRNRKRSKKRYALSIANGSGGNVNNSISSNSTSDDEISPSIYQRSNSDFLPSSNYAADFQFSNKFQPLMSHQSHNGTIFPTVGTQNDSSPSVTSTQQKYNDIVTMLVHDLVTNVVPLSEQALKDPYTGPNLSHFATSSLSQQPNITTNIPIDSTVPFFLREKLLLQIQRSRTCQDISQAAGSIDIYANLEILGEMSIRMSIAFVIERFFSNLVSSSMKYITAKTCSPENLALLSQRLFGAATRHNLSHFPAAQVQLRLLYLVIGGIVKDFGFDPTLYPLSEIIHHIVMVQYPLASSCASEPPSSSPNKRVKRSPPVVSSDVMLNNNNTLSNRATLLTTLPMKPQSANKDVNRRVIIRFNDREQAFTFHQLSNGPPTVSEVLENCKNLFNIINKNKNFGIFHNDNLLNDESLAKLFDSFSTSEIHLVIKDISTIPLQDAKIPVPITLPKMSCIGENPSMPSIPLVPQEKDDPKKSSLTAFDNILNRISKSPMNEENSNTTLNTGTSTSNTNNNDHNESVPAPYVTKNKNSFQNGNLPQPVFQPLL
Assay: PBM E-score (8-mer binding enrichment) (E-score (-0.5 to 0.5)); higher = stronger / more preferred TF binding; most listed sequences are background and not binding sites
Settings: protein concentration: 200 nM; construct: GST-full length
Method: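 Universal 'all 10-mer' protein binding microarrays (Agilent AMADID 015681) probed with GST-tagged S. cerevisiae TFs (full-length or DBD) made by in vitro transcription/translation (PURExpress), about 100-200 nM. Bound TF was detected with fluorescent anti-GST. Each ungapped 8-mer (which stands for itself and its reverse complement) is scored by the PBM enrichment score (E-score), a modified Wilcoxon-Mann-Whitney statistic from -0.5 to +0.5, computed with the Universal PBM Analysis Suite. Scale: above 0.35 generally sequence-specific binding.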

Sequence	PBM E-score
CGGTAAAA	-0.0687
GACCTGCC	-0.031
CACTAACG	-0.0325
CCTTCCTC	-0.278
GCGTGACC	-0.0398
GAATATTC	0.00293
ACTCGGGA	0.236
CGATCCGC	0.0637
AGTATTAC	0.0584
AACGTGGC	-0.0566
CGAAAAGA	0.156
ATGTAGAA	-0.129
AAATCGCC	-0.108
CAATCAAG	0.00756
CACAGTTA	0.21
ACGATACC	0.106
CGTGTCTC	0.196
AAGCAGAT	-0.0388
TGCGATAA	0.121
CGTACACA	0.238
ATGTCACC	0.0142
TGCAAACA	-0.164
ACTAGGCG	0.252
CGAATCGA	0.193
CGTTGCTC	-0.0648

Sequence	PBM E-score
ATCCCGCG	0.164
GTTGTAGA	-0.181
GAATGTCC	-0.149
AAGGATCA	-0.0925
ATGAAGAC	-0.0146
AACTTTAA	-0.0951
TAGCTGGA	-0.0696
GAAAGCCA	-0.191
CTGTCACA	0.025
AAAAATTA	-0.0637
ATGCGTGC	-0.0589
ATGAGTTG	0.173
CGTACGCC	-0.202
GGGAGCTA	-0.161
ATAAGGCA	-0.128
CTCGTGGA	-0.00995
GAGCGTGA	0.0478
AGTCTCCG	0.177
GCTGCCAC	-0.0308
AAGGACAT	-0.195
GAAAAATA	-0.226
ACTGACGA	0.122
AGATACTC	0.171
AACACTCA	0.259
AGGAGCCA	0.0479

Sequence	PBM E-score
TGGTGGAA	-0.159
ACAGGCCG	-0.016
GAGTACTC	0.345
GCAGTGTA	0.0845
ATGCCCGG	-0.0554
AAAATCCT	-0.144
CCTGGATA	-0.104
CCGCCGCG	0.199
ATCCTTTG	-0.0873
ACCTTTTA	-0.189
GATCGGCC	-0.045
GTATGCAC	0.0689
CACTTTTC	-0.0795
ACATCGCG	0.183
TAAGTTAA	-0.166
GATTGTGC	0.187
CCTGCCGC	-0.111
TCGGTAAA	-0.103
ACCAGCTC	0.0604
CGTCAACG	-0.0358
AGATTCGC	0.0358
ATACCACG	0.0921
ATGGCGTG	0.066
CCTAGACG	-0.0101
CTAATTTA	-0.11

Sequence	PBM E-score
CACTGCAG	-0.112
CGTGTACA	0.103
CACTTTAA	0.0651
ACCAAAGT	-0.0249
AACCAGTG	-0.0631
CGAAGCAG	0.0148
TTCCTCAA	-0.19
ACAGCTGG	-0.119
GTAAAAGA	-0.14
GAAAGCGC	-0.0855
GAACCTTC	-0.203
CGATAGCG	0.0302
CCAGCGGA	-0.212
ACTAAATA	0.0772
ACGCATGC	0.16
CCCTCTTA	-0.121
AAGGCTTG	-0.223
CAACGTAC	-0.0809
ACAACACT	0.223
CCAAATAC	-0.0361
ACGCCGTA	-0.0679
GGATGTTA	-0.00061
CTCGGAAA	-0.104
CTTGCAGA	-0.0204
AGGGGTAT	-0.0881

Sequence	PBM E-score
CTATAATA	-0.112
CAAGCATA	0.104
GTCGCGGA	0.00363
AACATAGC	-0.0539
CACATCCA	0.147
GCATAGGC	-0.193
CTGCGGAA	-0.0513
AGCGCGAA	0.178
GATATTCA	-0.0177
AATTAGCT	-0.0274
GCCCCCCC	-0.238
CTCTCACC	0.168
ACAGCCCT	-0.25
CGACATCG	-0.113
GTTATCTA	-0.143
GACCAGCA	0.0649
AACACCGT	-0.0339
TCCTTGAA	-0.181
AGGGTTCG	-0.179
TATTGACA	-0.128
ACGGATAT	0.114
CCAGGTCC	-0.159
GTTGGGTA	0.0584
GGAGGCTA	-0.0627
CCCAAGGC	-0.0451

Sequence	PBM E-score
ATAATCGC	0.0411
ACATTAAG	-0.134
CCCGCCGA	0.00185
ACCGGTTA	-0.279
ACCACGGG	0.0425
AATTTTAC	-0.0974
GTGTTATA	0.0758
CCAAAAAG	-0.0555
GCTTCGGA	-0.0412
GATTATGA	0.163
CAAGTTCA	0.0736
CCGTTCGA	-0.00076
CGCGGCTC	0.278
CTGCAGAA	0.0335
CATGGCGG	0.154
ATACAGAA	0.169
CCGTGGCG	0.189
CCTTAAAG	-0.337
AGCTGGTG	0.116
CATTTAGG	-0.277
CATAACCC	0.00324
CTTGCAAA	-0.0346
GAATTGTA	-0.1
AGAAACAA	0.0133
CAGATGCA	-0.0339

Sequence	PBM E-score
AACCACGA	0.196
AGTTGCGG	0.125
ACGCCCTA	-0.206
AGCCGTGA	0.134
ACAGTTAA	0.0518
ATCCAGAC	-0.0123
GCACCAAA	-0.15
CTTAGTAC	0.107
AGAGGTGA	0.031
AGTTAATC	0.126
AGTCAACG	0.278
ATGGAACG	-0.11
GAAAACAC	-0.105
CCAAGTTC	-0.0409
GTGTTCCA	0.0405
CGGCCCTA	-0.135
GCCGCTCA	-0.231
GTAAACTA	0.0822
GCACCAGC	-0.0344
CAACGAAA	-0.0742
ACGGGAGG	-0.13
GTTAATCA	0.296
ATTAGGAC	-0.173
TCTTACAA	-0.12
ATCGCATG	0.156

Sequence	PBM E-score
AATGTGGC	0.105
AAGATACT	0.0322
ACCCTCAG	-0.0173
GCGAGCGA	0.0975
CGTATAAG	-0.0703
ATCTGACG	-0.0358
ACGACAGC	0.00648
AATAGATT	-0.00061
CGATTAAG	-0.0745
CACCCTAG	0.0911
ATAATGTG	0.094
CATAACTC	0.0245
CAGGCAAC	0.078
AGCCTACC	-0.159
CGTGTCGA	-0.00815
GCAATAAA	0.0117
AATATACG	-0.0103
CGGCTAGA	-0.198
ACCGGACA	-0.0713
CAAAGCCC	-0.099
AGGAGTTG	-0.00747
ACGTGGAC	-0.0382
AAGCATAT	0.0754
AACCTTCA	-0.0529
ATAAATTC	-0.136

Sequence	PBM E-score
AACAAGGT	0.00321
AAGTCTAC	-0.0786
CCGCACTC	0.0922
CGCATATC	0.262
CAGGCTAC	0.0449
CTGGTCAC	0.05
GCCCCAGA	0.103
CCACACCC	0.197
CATGATCG	0.127
TACTCCCA	0.131
ACCACCCT	-0.0842
CTATGGGC	-0.141
ATCGGCAC	0.0188
CCCCGCGC	-0.00559
GCCCGGGA	0.11
AACACTTC	0.014
CGTACCGC	-0.0362
ACACGGGA	0.136
AACCGACA	0.123
CAATTTGG	-0.158
GCTTGTCA	-0.11
CTCCCACA	-0.0608
CACGTATG	0.073
CGGAATCA	0.412
GGCCTTCA	-0.0959

Sequence	PBM E-score
AAATGGAG	0.0249
ATTCACGG	0.0271
AGCTAGTG	0.119
GTTAAGAA	-0.22
CCTCGTGA	0.00771
AATGGACA	-0.00426
GCGGAGAA	0.00312
TGTTATAA	0.163
AACCCAAT	0.0167
CAACCCAC	0.248
CCCTGTAC	-0.0291
CAACTCCC	0.0862
CGCTTCGC	-0.137
AAGTTCAC	0.0411
AGTTCACG	-0.244
CCTGGCGC	0.0921
CCGACAAA	-0.0927
CCGAGAAG	-0.173
CGCAAGTA	-0.00503
AACCGAAC	-0.0679
CCGCTCGA	-0.0637
CCTGTCTA	0.0253
CGGTGAGC	0.0551
ATAGTGTC	0.13
TCTGAAAA	-0.27

Sequence	PBM E-score
CATATAAA	-0.133
GAGCCACC	0.228
ATGCAAAA	-0.135
CATCACCG	-0.0076
CGGATCTC	-0.0666
CCTCGAAC	-0.0493
CTCTCGGA	0.135
GCACTTCA	-0.188
ATATTCTC	0.126
CATATGAC	0.267
GAGTTACA	0.171
CATTATGC	0.138
CCCATATA	0.165
GGGACACA	0.297
AGTGAAAC	0.068
CCCATCCG	0.0692
ATTTCTTG	-0.159
GTAAGCCA	-0.0205
CATCATGC	0.201
AAGCGGAA	-0.115
GACGCAAC	-0.169
AAGTCCAT	-0.148
ACAAGGTC	0.0988
ATCCATCC	0.156
CCCGGCAC	-0.144

Sequence	PBM E-score
CCCAAGTA	-0.0374
CTAGCAGA	-0.204
AATCAAGG	0.0679
CTGAGGGA	-0.142
GCAGTTTA	-0.221
GTACGCAA	-0.0437
ATTTAAAA	-0.063
GTCAAGAA	0.0425
ATTGTGAC	0.216
GGGACCTA	-0.0807
CGCACACG	0.0985
AGAGTCTA	-0.281
CGAACCTC	0.062
AACGGTGC	-0.231
ACTGGGCC	-0.169
CCCAAACC	-0.0342
CAATAATA	0.00445
AAGTGGAA	-0.00351
CAGCCTTA	-0.297
TCATTCAA	-0.00198
GGAGTGAA	-0.137
GTGTCGGA	0.155
TAGAAGCA	-0.107
AGGTGTTG	-0.0372
AACCATAA	0.162

Sequence	PBM E-score
ACCGCACC	0.148
AGCACCGC	0.0822
AGCTGAAG	-0.228
CTGGCAGC	-0.118
ACGCGTCC	-0.0535
AGCATTTA	-0.14
AGACTTGC	-0.249
CGGATCCC	-0.0949
ACAATGGC	0.0588
GTACTGAA	0.143
CTGGCCGA	-0.131
CAATCATG	0.289
ACCATGCA	0.11
GATTCGCA	0.276
CAATCATC	0.284
GCGAGACA	0.164
AGTTCTGG	0.115
ACCGCCAT	0.156
AAGCCCAC	0.0299
CTTCGCCA	-0.0994
ACGTCCCG	-0.193
GATAGGCC	-0.2
GATTACCC	0.118
CAAAATCG	-0.0385
GACCCGAA	0.013

Sequence	PBM E-score
CCTAAGGC	-0.393
GTCTTCTA	-0.204
CGCTTTGC	-0.127
AGGCGCAT	-0.0966
AGTCACGG	0.417
CTAATTCC	-0.15
CACACGCC	0.196
AGGAGGTG	-0.227
ACAAGCTG	0.0668
CGAGATCC	-0.0376
CACCTAAA	-0.0371
AAGCAGTA	-0.0911
CATGGTCA	0.172
GCGTAGCC	-0.0467
ATCGAGAA	0.0911
AGAAAGGG	-0.215
GGCTAATA	-0.0251
CAAGCGCG	0.105
ATGGTCAA	0.0129
